# Screen size: about 230,000 compounds; about 3,600 (1.6%) were called active. Inconclusive means that the source gave no clear call. Such entries were picked first, then a sample of the others. Calls come from the whole dose curve; as a rule, active = well fitted inhibition curve with a large enough effect (not every such curve was filed as active); inconclusive = small, poorly fitted or top-dose-only effect, or another doubt; inactive = no such curve, though single readings can be large or run the other way. A potency beside an inconclusive call is a rough fit, not a confirmed value.
# Molecular target: Lysine-specific demethylase 4E (Homo sapiens) (UniProt B2RXH2)
# Assay: qHTS Assay for Inhibitors of Human Jumonji Domain Containing 2E (JMJD2E)
# Details: JMJD2E catalytic domain, FDH-coupled NADH fluorescence (FDH is formaldehyde dehydrogenase); series mostly up to 57.1 µM; activity change, negative = inhibition: at the top concentration
# Note: nearly all actives have a fitted effect of over 50% in size.
# Potency is the fitted concentration of half-maximal effect; tags give direction and shape of the fitted curve.
# 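Throughout, for activity change, negative = inhibition: 0% = wells with enzyme and -100% = buffer wells without enzyme.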
# Chain of UniProt B2RXH2 (B2RXH2 whole entry, looked up, the tested form may be a part): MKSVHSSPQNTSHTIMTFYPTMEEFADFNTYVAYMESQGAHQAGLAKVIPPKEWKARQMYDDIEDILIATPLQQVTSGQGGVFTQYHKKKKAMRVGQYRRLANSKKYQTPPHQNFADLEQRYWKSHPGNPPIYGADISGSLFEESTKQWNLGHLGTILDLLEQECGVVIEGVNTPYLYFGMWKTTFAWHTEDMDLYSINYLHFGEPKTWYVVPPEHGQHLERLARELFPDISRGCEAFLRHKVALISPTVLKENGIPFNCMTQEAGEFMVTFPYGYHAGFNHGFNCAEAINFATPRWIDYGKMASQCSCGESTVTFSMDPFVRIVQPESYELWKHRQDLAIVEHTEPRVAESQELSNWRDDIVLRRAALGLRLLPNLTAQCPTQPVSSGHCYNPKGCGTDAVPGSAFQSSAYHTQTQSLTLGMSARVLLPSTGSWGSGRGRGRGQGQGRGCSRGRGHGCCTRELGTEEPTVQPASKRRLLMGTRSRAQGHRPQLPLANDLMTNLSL
Compound,Potency,"activity change, negative = inhibition"
CCN1CCN(C(=S)Nc2ccc3nc(N4CCN(CC)CC4)cc(C)c3c2)CC1,"inconclusive: 28.2 µM [inhibitor, partial curve]",–
CS(=O)(=O)Nc1cccc(-c2nc(NCCN3CCOCC3)c3ccccc3n2)c1,–,inactive: 4.09%
Cc1ccc2nsnc2c1NC(=O)c1ccc(-c2cc(Cl)ccc2Cl)o1,"inconclusive: 39.8 µM [inhibitor, single point]",–
C/C(=N/NC(=O)CC1N=C(Cc2ccccc2)NNC1=O)c1cccnc1 (stereo unspecified),–,inactive: -19%
CN(C)c1ccc(C(=O)C(O)c2ccccc2)cc1 (stereo unspecified),"inconclusive: 39.8 µM [inhibitor, single point]",–
CCOc1ccc2[nH]c3c(N4CCc5ccccc5C4)ncnc3c2c1,"inconclusive: 31.6 µM [inhibitor, partial curve]",–
Cc1nc2sc(C(c3ccco3)N3CCOCC3)c(O)n2n1 (stereo unspecified),"inconclusive: 39.8 µM [inhibitor, single point]",–
CCOC(=O)c1ccccc1NC(=O)c1ccccc1NS(C)(=O)=O,"inconclusive: 25.1 µM [inhibitor, single point]",–
O=C(O)CC/C(=C\c1ccccc1[N+](=O)[O-])c1nc2ccccc2s1,–,inactive: 4.63%
C(=N/Nc1cc(N2CCOCC2)nc(N2CCOCC2)n1)/c1ccccc1,"inconclusive: 8.91 µM [inhibitor, partial curve]",–
CCNS(=O)(=O)c1ccc2nc(NC(=O)/C=C/c3cc(OC)c(OC)c(OC)c3)sc2c1,"inconclusive: 0.0398 µM [inhibitor, full curve]",–
Cc1ccc(C(=O)N/N=C/c2ccc(N3CCOCC3)cc2)c(C)c1,"inconclusive: 25.1 µM [inhibitor, partial curve]",–
Cc1nc2ccc(C(=O)O)cc2c2c1CC(C)S2 (stereo unspecified),"inconclusive: 31.6 µM [inhibitor, partial curve]",–
CC(C)(C)NC(=O)C(c1ccc(I)cc1)N(CCN1CCOCC1)C(=O)CCCNC(=O)c1ccccc1 (stereo unspecified),–,inactive: 4.3%
Cc1ccsc1/C=N/NC(=O)c1ccc2nc[nH]c2c1,"inconclusive: 35.5 µM [inhibitor, single point]",–
COc1ccc(NC(=O)CC2C(=O)N(C)C(=S)N2CCc2ccccc2)cc1 (stereo unspecified),–,inactive: -13%
COc1ccc(OC)c(N2CC(O)=C(c3nc4ccccc4s3)C2=N)c1,"inconclusive: 35.5 µM [inhibitor, partial curve]",–
COc1ccc(/C=C2/SC(=O)N(CCC(=O)Nc3ccc(C)cc3)C2=O)cc1OC,–,inactive: 1.59%
CCOC(=O)Cn1nnnc1CN(Cc1ccc(OC)cc1)Cc1cc2cc(C)cc(C)c2[nH]c1=O,–,inactive: 5.44%
Cn1cc(Br)c(C(=O)Nc2sc3c(c2C#N)CCC3)n1,"inconclusive: 28.2 µM [inhibitor, partial curve]",–
CC1=C(C(=O)Nc2ccc(F)cc2)C(c2ccc(C)o2)C2=C(CC(C)(C)CC2=O)N1 (stereo unspecified),"inconclusive: 25.1 µM [inhibitor, single point]",–
CCSc1cc(N2CCOCC2)nc(-c2ccc(Cl)cc2)n1,"inconclusive: 39.8 µM [inhibitor, single point]",–
Cc1ccccc1CSCC(=O)N1CCN(c2ccccc2)CC1,–,inactive: 13.6%

Compound,Potency,"activity change, negative = inhibition"
COc1ccc(N/C(=C(/C(Cl)=C(Cl)Cl)[N+](=O)[O-])n2nnc3ccccc32)cc1,"inconclusive: 39.8 µM [inhibitor, single point]",–
Cc1nc2ccccn2c1-c1ccnc(=S)[nH]1,–,inactive: 0.0989%
CCCCCCCCCCCCCCCC(=O)O[C@H](CC(=O)O)C[N+](C)(C)C,"inconclusive: 10 µM [inhibitor, full curve, poor fit]",–
N#Cc1c(Oc2ccc3ccccc3c2)sc(C(=O)c2ccccc2)c1N,"inconclusive: 35.5 µM [inhibitor, single point]",–
CC(=O)Nc1ccc2c3c(cccc13)C(=O)N(c1ccccc1)C2=O,"inconclusive: 25.1 µM [inhibitor, partial curve]",–
CCOC(=O)c1cc2c(=O)n3ccccc3nc2n(CCCOC)c1=NC(=O)c1ccncc1,"inconclusive: 28.2 µM [inhibitor, partial curve]",–
CCCCCNc1nc(NCCCO)c(C#N)c2c1CN(C)CC2,"inconclusive: 10 µM [inhibitor, partial curve]",–
O=S(=O)(c1cccs1)N1CCCc2cccc(O)c21,"inconclusive: 39.8 µM [inhibitor, single point]",–
CCOC(=O)CCSc1nc(C)c2cc(C)ccc2n1,"inconclusive: 28.2 µM [inhibitor, single point]",–
Cc1nc(-c2ccccc2)sc1-c1ccn[nH]1,"inconclusive: 31.6 µM [inhibitor, partial curve]",–
Cc1ccc(S(=O)(=O)Nc2ccc(NC(=O)Nc3cccc(C(F)(F)F)c3)cc2)cc1,–,inactive: -9.26%
COC(=O)c1cccc(NC(=O)c2nn(C(C)C)c(=O)c3ccccc23)c1,"inconclusive: 39.8 µM [inhibitor, single point]",–
CCN(CC)c1ccc(/C=N\NC(=O)c2cccc3cc[nH]c23)cc1,"inconclusive: 31.6 µM [inhibitor, partial curve]",–
O=C(C1CCN(S(=O)(=O)N2CCCCC2)CC1)N1CCCCC1,–,inactive: 6.24%
CS(=O)(=O)NCCSCc1c(Cl)cccc1Cl,–,inactive: 0.533%
CSc1nsc(SC)c1C(=O)NCCNS(=O)(=O)c1ccc(C)cc1,"inconclusive: 39.8 µM [inhibitor, single point]",–
FC(F)(F)c1cccc(Cn2c3[n+](c4ccc(C(F)(F)F)cc42)CCCCC3)c1,–,inactive: -19.9%
CCOc1ccc2nc(-c3cc(NC(C)=O)ccc3O)sc2c1,–,inactive: 5.4%
O=C(/C=C/c1cn(CC(O)CN2CCCCC2)c2ccccc12)c1ccccc1 (stereo unspecified),–,inactive: 7.05%
COc1ccc(C2CC(=O)N3CN(c4ccc(C)c(Cl)c4)CSC3=C2C#N)cc1 (stereo unspecified),"inconclusive: 35.5 µM [inhibitor, single point]",–
CCn1c2ccccc2c2cc(NC(=O)C(C)Oc3ccc(OC)cc3)ccc21 (stereo unspecified),"inconclusive: 39.8 µM [inhibitor, single point]",–
Cc1ccc(-c2cc(-c3ccccc3C)[nH]n2)c(O)c1,–,inactive: 5.47%
O=C(N/N=C/C=C/c1ccco1)c1cccnc1,"inconclusive: 39.8 µM [inhibitor, single point]",–

# From PubChem BioAssay AID2147 (National Center for Advancing Translational Sciences (NCATS), 2009)
